Test results reported in the supplement of paper PMC3334620.
Over roughly 33,000 sequences, “E-score (-0.5 to 0.5)” has its median near -0.032; the highest 2% begin near 0.36. This is one part of the list.

What follows are sequences tested against T1, Sko1 (UniProt Q02100) (assay: PBM E-score (8-mer binding enrichment) (E-score (-0.5 to 0.5)); higher = stronger / more preferred TF binding; most listed sequences are background and not binding sites). Details: protein concentration: 200 nM; construct: GST-full length.
T1 sequence: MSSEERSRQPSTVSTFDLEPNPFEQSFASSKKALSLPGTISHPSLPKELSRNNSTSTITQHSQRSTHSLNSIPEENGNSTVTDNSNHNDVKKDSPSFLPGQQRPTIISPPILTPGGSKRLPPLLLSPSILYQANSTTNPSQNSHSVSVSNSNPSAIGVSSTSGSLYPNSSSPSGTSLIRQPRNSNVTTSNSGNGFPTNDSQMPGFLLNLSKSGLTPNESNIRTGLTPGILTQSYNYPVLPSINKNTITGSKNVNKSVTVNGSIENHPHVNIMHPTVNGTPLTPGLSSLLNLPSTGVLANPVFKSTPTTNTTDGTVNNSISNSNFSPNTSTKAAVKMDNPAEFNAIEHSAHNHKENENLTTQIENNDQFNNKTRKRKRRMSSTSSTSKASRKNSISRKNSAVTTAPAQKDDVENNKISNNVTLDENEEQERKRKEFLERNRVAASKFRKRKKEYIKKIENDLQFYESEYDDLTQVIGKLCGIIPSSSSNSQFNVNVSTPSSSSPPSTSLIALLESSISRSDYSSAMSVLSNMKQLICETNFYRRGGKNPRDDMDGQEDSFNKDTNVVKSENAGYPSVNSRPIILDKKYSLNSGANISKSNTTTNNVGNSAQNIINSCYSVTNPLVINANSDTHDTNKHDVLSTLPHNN
How it was run: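 Detection of bound protein used fluorescent anti-GST, with scans normalised by masliner. The proteins were GST-tagged yeast transcription factors applied at about 100-200 nM to universal all-10-mer Agilent arrays made double-stranded by primer extension. Each ungapped eight-base word, pooled with its reverse complement, was scored with an E-score from the Universal PBM Analysis Suite.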

Sequence | PBM E-score
AGCTAGCT | -0.00529
AGTATTTA | 0.164
ATGGTAGA | -0.0774
CTGAAACA | 0.136
AACACGGT | 0.0994
GAGGAGGC | -0.241
CGATGTAG | -0.0725
CTTTCTTC | -0.0783
AACAAATT | 0.222
GGAACATA | 0.0323
CTAACGGA | 0.007
AGAAATAC | 0.181
AGGATACG | 0.239
CGAATGAG | 0.171
ATTTTACG | 0.383
CCTCTAAC | -0.147
GGCTAAAA | -0.194
ACTGACAT | 0.157
ATAGATCC | -0.125
AGACGAGA | -0.0307
TAATAACA | 0.166
GCCATGTA | 0.112
ACGATCCA | -0.104
AGACAAAG | -0.0355
CAGTAATC | 0.0473

Sequence | PBM E-score
AACTTTAT | 0.102
CCACTCCG | -0.189
CTTAGTCA | -0.0288
AAGCTACG | 0.251
GTATTGGA | 0.153
AAGGTTGG | -0.0488
GATTGAGA | 0.163
GCATCGCA | -0.35
AATTAGAT | 0.24
GCCGAAAC | -0.201
AACGATAC | 0.0866
GATAGTCC | -0.141
GCAATGCC | -0.173
CCACGTAA | 0.456
ATATTCAA | 0.114
GGACAAGA | -0.223
ACCGGATC | -0.142
GTCCCCCA | -0.225
CCTAAGAA | 0.105
TAACCCTA | 0.0569
GCGTAGCA | 0.225
ACCGCCGT | -0.264
TAGTTTAA | 0.106
AACTCATT | -0.0146
CATGCATG | 0.0909

Sequence | PBM E-score
AGTGGCCA | -0.0914
AGTACCGG | -0.122
AGAATACC | 0.0988
CTAAGTAG | -0.00551
CGAGACTC | -0.155
GAGGTCGC | -0.214
GACCGGGC | -0.21
AATTACCA | 0.151
GAGACTGA | -0.0471
CTAACCTA | 0.0431
GAATCGAC | 0.0216
GCCCATAA | -0.17
CGCTTACA | -0.0126
CTGTAGCC | -0.181
GCTCACCA | -0.0871
TGTAGCAA | -0.0122
GGGCAGGA | -0.183
AAGCTTCC | -0.128
ATTATGTC | 0.336
GCTCCCCA | -0.157
CTTGGGCA | -0.17
ATCGGCGA | -0.273
AACGATTA | 0.169
ATACGTAT | 0.487
ATAGATTC | 0.0666

Sequence | PBM E-score
ACCCTGCA | 0.0472
CAACATGG | 0.0728
ATGGCACG | 0.114
GGGACGTA | 0.319
AAAAGTGT | 0.0593
ACATAACG | 0.312
CCCCGTGC | -0.11
CCTTTATA | -0.0221
CGCGTACC | 0.156
TACGACAA | 0.279
GTGCGAAC | -0.119
AGCCTTTA | 0.0785
ATCGCGGA | -0.186
CTACAGTC | -0.00457
ACCACTCC | -0.346
AGAAGATG | 0.126
ACAGGTAT | 0.109
AGATCCGG | -0.284
CCATGTTC | -0.124
AAAAGAAT | 0.115
GACGCGAA | 0.119
ACGCACGT | 0.403
ACGATAGA | 0.136
TCTAAAAA | 0.00786
ACCTTTTC | -0.159

Sequence | PBM E-score
CTGCAGTA | -0.0765
GTTTGACA | 0.133
CCCGCCGC | -0.0661
TGAAAGAA | 0.0805
CGGGTAGA | -0.156
AAGGGGAG | -0.295
CATCACCA | 0.136
CCTCCACG | 0.0433
ATTTGCGA | 0.155
ACCTCATG | 0.0466
GCCGCAGC | -0.205
GGAGAATA | 0.0913
GTTTTAAA | 0.098
GCGGGTGA | -0.0158
CAGAAGCG | -0.0267
CGTGCGGC | 0.00261
ACCGTAGC | -0.0407
GTAATTAC | 0.367
GTGTCCAA | 0.142
TAGTTGCA | 0.155
GATATTTA | 0.124
CGTCAACC | 0.344
CAGGGAGG | -0.23
CCACGACA | 0.0113
CTGTTATC | 0.161

Sequence | PBM E-score
ACGCTGGA | -0.139
GGTGGGCA | -0.156
CCACTACG | 0.255
AAACGTCA | 0.47
ATTCGGTC | 0.0279
GAGACAGA | 0.00414
CAACGCGA | -0.0306
ACGGACGC | -0.0612
ACCGCGCA | -0.149
GAACGAGA | 0.041
GTTGGCCA | -0.204
TATGTAAA | 0.322
ATCATCAG | 0.161
CCGGCGCG | -0.218
CCGCTTCG | -0.149
AACAAGCA | -0.0884
CGGTTGGA | -0.258
AGTATCAA | 0.173
ATTGCAGG | 0.086
ATTGAAAT | 0.267
AGATGGTG | -0.179
TTTACAAA | 0.22
TACACATA | 0.156
AGGTAGCG | -0.119
AGGGCTGA | -0.122

Sequence | PBM E-score
ACTGAACA | 0.0693
GAGGATAA | -0.0417
AGCAAGAG | -0.0197
GCATATGC | 0.0115
ACGCCGGC | -0.082
AAGTAAAT | 0.139
CTGCTTTC | -0.173
ATGGACAC | 0.0118
AGGGCCGA | -0.206
CGGTAGCA | -0.115
ACGCGGCA | -0.105
CAGGATGC | -0.244
GAAAAGAA | -0.00717
AAGCATGC | 0.121
AGCTGTGC | -0.119
GGCACACC | -0.123
CGACTAAG | -0.172
ATTTTCCC | 0.0309
GTATTTAA | 0.246
TCTACGAA | 0.0722
TCTGCAGA | -0.124
AGATCTAG | -0.0126
